# Results: the supplement of paper PMC3334620
# Whole data set: some 33,000 sequences, median “E-score (-0.5 to 0.5)” near -0.036, cut for the highest 2% near 0.37. Some of the results follow.
# Target: T1, Yer064c (UniProt P40041)
# T1 sequence: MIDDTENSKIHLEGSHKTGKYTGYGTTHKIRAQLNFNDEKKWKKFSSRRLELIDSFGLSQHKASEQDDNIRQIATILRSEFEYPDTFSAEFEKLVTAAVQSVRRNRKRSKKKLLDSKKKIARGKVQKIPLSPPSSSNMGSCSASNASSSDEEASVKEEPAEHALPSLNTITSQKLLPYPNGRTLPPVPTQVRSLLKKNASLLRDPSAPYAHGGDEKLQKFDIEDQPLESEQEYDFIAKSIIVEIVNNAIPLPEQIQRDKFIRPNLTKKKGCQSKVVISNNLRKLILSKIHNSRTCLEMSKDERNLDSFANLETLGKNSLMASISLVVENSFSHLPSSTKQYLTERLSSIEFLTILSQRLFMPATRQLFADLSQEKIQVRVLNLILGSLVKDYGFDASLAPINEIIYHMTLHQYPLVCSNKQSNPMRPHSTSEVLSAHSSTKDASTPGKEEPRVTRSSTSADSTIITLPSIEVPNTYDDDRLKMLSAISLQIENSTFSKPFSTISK
# Assay: PBM E-score (8-mer binding enrichment) (E-score (-0.5 to 0.5)); higher = stronger / more preferred TF binding; most listed sequences are background and not binding sites
# Conditions: protein concentration: 200 nM; construct: GST-full length
# Summary of the method: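 GST-tagged yeast TFs (full-length or DNA-binding domain) were made by PURExpress in vitro transcription/translation and applied at about 100-200 nM to universal all-10-mer Agilent arrays. The arrays were made double-stranded by primer extension, on fresh or once-stripped slides. Bound protein was detected with fluorescent anti-GST, and scans were normalised with masliner. Each ungapped eight-base word, pooled with its reverse complement, received an E-score (modified Wilcoxon-Mann-Whitney statistic) from the Universal PBM Analysis Suite.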
row,Sequence,PBM E-score
1,AGCTGTAA,0.0835
2,CCGGTGCA,-0.339
3,TATGGTCA,0.157
4,CCTTTGAG,0.0117
5,CTCATATC,0.188
6,CCGGCAGG,-0.176
7,AGTTTAAA,0.104
8,ATGAGGGA,-0.0238
9,AGATGTTG,-0.179
10,AGCTAGCA,-0.123
11,ACAGTTAT,-0.0189
12,GCAGAAGC,-0.307
13,GACGCTCA,-0.0271
14,AGGTCGGG,-0.125
15,GACCCCAA,-0.18
16,CCATGTGC,-0.0296
17,AATGCAGT,0.0561
18,ACTGGATG,-0.0534
19,AGCCAGGG,0.0643
20,AGCCTCTC,-0.358
21,CAGCAGCG,-0.0778
22,CCTGCGAC,0.00067

row,Sequence,PBM E-score
1,CCACACCG,-0.0031
2,CGTAAGCA,-0.394
3,AGATAAAC,-0.00183
4,CAGTCCAG,0.0165
5,CGGGCCAG,-0.188
6,CTTGGGGC,-0.17
7,AAGACATG,-0.0639
8,CAGCGCAA,-0.0584
9,GGCCCAAA,-0.283
10,ACTGGACC,-0.00642
11,ATCATGAA,0.266
12,GAATGTGC,-0.135
13,AAAGTCAG,0.323
14,CTTACGAC,0.0574
15,CGCATTAG,0.0905
16,AAAACAAG,-0.00591
17,CGTGCGAG,0.00932
18,CAAACTGC,0.0135
19,GCCCCTAA,-0.237
20,AGCACGTA,-0.21
21,CAGTGTGG,-0.225
22,GATACGCC,-0.269

row,Sequence,PBM E-score
1,ACGCGTAC,-0.0595
2,AAGCGCTA,-0.0894
3,AATTAACT,0.0949
4,AAGCGTAT,-0.234
5,CTCTACGC,0.0654
6,CGCGGGCA,-0.0282
7,CCTCGCCG,-0.246
8,CAGCCTAC,-0.0538
9,ACGGGCGC,-0.354
10,GCAATACA,0.0509
11,CAAGATGC,0.0265
12,ATATGCTG,-0.149
13,CCCCCATA,-0.323
14,GCCCGTTA,-0.306
15,ACATCGCA,-0.203
16,CATCAGGC,-0.088
17,GCTTCGTA,-0.128
18,CAAGTATC,0.0186
19,ATAAAATC,0.191
20,ACGAGGTG,-0.116
21,AGTCACTA,0.469
22,TCACATAA,0.262

row,Sequence,PBM E-score
1,ACAATGTA,-0.11
2,ATCGTTAC,-0.0622
3,GCCCGAGC,-0.0349
4,GAGAGTAA,0.0863
5,ACCACGCT,-0.00689
6,ATAGGTTG,-0.00166
7,AACACACG,0.0301
8,AACGTTGA,0.0558
9,TATGTTCA,-0.0485
10,AGGCTGCC,-0.254
11,CATACACC,0.0215
12,TGCACCAA,-0.222
13,CAAGGGTA,-0.00639
14,ATTGCCTC,-0.139
15,CGATTGTA,0.023
16,CGGGCGTC,-0.148
17,CTCGATTA,0.186
18,AGCTAAAT,0.00761
19,ATATGGCC,-0.256
20,GAAAACTA,-0.133
